B1: lipocalin mutein SEQ ID NO: 7 (designed binder)
chain: ASDEEIQDVSGTWYLKAMTVDSDCFWIDDVSVTPMTLTTLEGGNLEAKVTMDIFGFWQEVKAVLEKTDEPGKYTADGGKHVAYIIRSHVKDHYIFYSEGECAGYPVPGVWLVGRDPKNNLEALEDFEKAAGARGLSTESILIPRQSETSSPG
notes: Parental LAG-3 specific hTlc mutein; also called parental lipocalin mutein
B2: lipocalin mutein SEQ ID NO: 57 (designed binder)
chain: TSDQEIQDVSGTWYLKAMTVDSDCFWIDDVSVTPMTLTTLRGGNLEAKVTMDIFGFWQEVEAVLGKTDRPGKYTAGGGKHAAYIIRSHVKDHYIFYSEGECAGYPVPGVWLVGRDPKNNLEALEDFEKAAGARGLSTESILIPRQSETSAPGSAWSHPQFEK
notes: also called optimized LAG-3 specific lipocalin mutein
B3: lipocalin mutein SEQ ID NO: 61 (designed binder)
chain: TSNQQIQNVSGTWYLKAMTVDSDCFWIDDVSVTPMTLTTLRGGNLEAKVTMDIFGFWQEVEAVLGKTDRPGKYTAGGGKHAAYIIRSHVKDHYIFYSEGECAGYPVPGVWLVGRDPKNNLEALEDFEKAAGARGLSTESILIPRQSETSAPGSAWSHPQFEK
notes: as for B2
B4: lipocalin mutein SEQ ID NO: 66 (designed binder)
chain: ASDEEIQDVSGTWYLKAMTVDSDCFWIDDVSVTPMTLTTLRGGNLEAKVTMDIFGFWQDVEAVLEKTDRPGKYTAGGGKHVAYIIRSHVKDHYIFYSEGECAGYPVPGVWLVGRDPKNNLEALEDFEKAAGARGLSTESILIPRLSETSSPGSAWSHPQFEK
notes: as for B2
B5: lipocalin mutein SEQ ID NO: 64 (designed binder)
chain: ASDEEIQDVSGTWYLKAMTVDSDCFWIDDVSVTPMTLTTLEGGNLEAKVTMDIFGFCQEVEAVLERTDEPGKYTADGGKHVAYIIRSHVKDHYIFYSEGECAGYPVPGVWLVGRDPKNNLEALEDFEKAAGARGLSTESILIPRQSETCSPGSAWSHPQFEK
notes: as for B2
B6: lipocalin mutein SEQ ID NO: 65 (designed binder)
chain: TSDEEIQDVSGTWYLKAMTVDSDCFWIDDVSVTPMTLTTLEGGNLEAKVTMDIFGFWQEVEAVLERTDEPGKYTADGGKHVAYIIRSHVKDHYIFYSEGECAGYPVPGVWLVGRDPKNNLEALEDFEKAAGARGLSTESILIPRQSETSSPGSAWSHPQFEK
notes: as for B2
B7: lipocalin mutein SEQ ID NO: 68 (designed binder)
chain: TSDEEIQDVSGTWYLKAMTVDSDCFWIDDVSVTPMTLTTLEGGNLEAKVTMDIFGFWQDVEAVLEKTDEPGKYTADGGKHVAYIIRSHVKDHYIFYSEGECAGYPVPGVWLVGRDPKNNLEALEDFEKAAGARGLSTESILIPRLSETSSPGSAWSHPQFEK
notes: as for B2
B8: lipocalin mutein SEQ ID NO: 67 (designed binder)
chain: ASDEEIQDVSGTWYLKAMTVDSDCFWIDDVSVTPMTLTTLEGGNLEAKVTMDIFGFCQDVEAVLEKTDEPGKYTADGGKHVAYIIRSHVKDHYIFYSEGECAGYPVPGVWLVGRDPKNNLEALEDFEKAAGARGLSTESILIPRLSETCSPGSAWSHPQFEK
notes: as for B2
B9: lipocalin mutein SEQ ID NO: 63 (designed binder)
chain: ASDEEIQDVSGTWYLKAMTVDSDCFWIDDVSVTPMTLTTLRGGNLEAKVTMDIFGFWQEVEAVLERTDRPGKYTAGGGKHVAYIIRSHVKDHYIFYSEGECAGYPVPGVWLVGRDPKNNLEALEDFEKAAGARGLSTESILIPRQSETSSPGSAWSHPQFEK
notes: as for B2
B10: lipocalin mutein SEQ ID NO: 24 (designed binder)
chain: ASDEEIQDVPGTWYLKAMTVSSEDPEMTLESVTPMTLTTLEGGNLEARVTVLIDGRCQEVKNVLEKTDEPGKYTEDGGKYVDYIIRSHVKDHYIFYFEGEGQGTPGRMVALVGRDPTNNLEALEDFEKAAGARGLSTESILIPRQSETCSPGSAWSHPQFEK
notes: as for B2
B11: lipocalin mutein SEQ ID NO: 21 (designed binder)
chain: ASDEEIQDVPGTWYLKAMTVSEEDPELTLESVTPMTLTTLEGGNLEARVTVLIDGRCQEVKNVLEKTDEPGKYTEDGGKYVDYIIRSHVKDHYIFYFEGEGQGTPGRMVALVGRDPTNNLEALEDFEKAAGARGLSTESILIPRQSETCSPGSAWSHPQFEK
notes: as for B2
B12: lipocalin mutein SEQ ID NO: 22 (designed binder)
chain: ASDEEIQDVPGTWYLKAMTVSEEDPEMTLESVTPMTLTTLEGGNLEARVTVLIDGRCQEVKNVLEKTDEPGKYTEDGGKYVDYIIRSHVKDHYIFYFEGEGEGTPGRVVALVGRDPTNNLEALEDFEKAAGARGLSTESILIPRQSETCSPGSAWSHPQFEK
notes: as for B2
B13: lipocalin mutein SEQ ID NO: 26 (designed binder)
chain: ASDEEIQDVPGTWYLKAMTVSREDPEMTLESVTPMTLTTLEGGNLEARVTVLIDGRCQEVKNVLEKTDEPGKYTEDGGKHVDYIIRSHVKDHYIFYFEGEGQGTPNRMAALVGRDPTNNLEALEDFEKAAGARGLSTESILIPRQSETCSPGSAWSHPQFEK
notes: as for B2
B14: lipocalin mutein SEQ ID NO: 27 (designed binder)
chain: ASDEEIQDVPGTWYLKAMTVSGEDPELTLESVTPMTLTTLEGGNLEARVTVLIDGRCQEVKNVLEKTDEPGKYTEDGGKYVDYIIRSHVKDHYIFYFEGEGPGTPGRMVALVGRDPTNNLEALEDFEKAAGARGLSTESILIPRQSETCSPGSAWSHPQFEK
notes: as for B2
B15: lipocalin mutein SEQ ID NO: 25 (designed binder)
chain: ASDEEIQDVPGTWYLKAMTVSAEDPEMTLESVTPMTLTTLEGGNLEARVTVLIDGRCQEVKNVLEKTDEPGKYTEDGGKYVDYIIRSHVKDHYIFYFEGEGKGTPGRMVALVGRDPTNNLEALEDFEKAAGARGLSTESILIPRQSETCSPGSAWSHPQFEK
notes: as for B2
B16: lipocalin mutein SEQ ID NO: 23 (designed binder)
chain: ASDEEIQDVPGTWYLKAMTVSDEDPEMTLESVTPMTLTTLEGGNLEARVTVLIDGRCQEVKNVLEKTDEPGKYTEDGGKYVDYIIRSHVKDHYIFYFEGEGQGTPGRLVALVGRDPTNNLEALEDFEKAAGARGLSTESILIPRQSETCSPGSAWSHPQFEK
notes: as for B2
B17: lipocalin mutein SEQ ID NO: 20 (designed binder)
chain: ASDEEIQDVPGTWYLKAMTVSDEDPEMTLESVTPMTLTTLEGGNLEARVTVLIDGRCQEVKNVLEKTDEPGKYTEDGGKYVDYIIRSHVKDHYIFYFEGEGHGTPGRMVALVGRDPTNNLEALEDFEKAAGARGLSTESILIPRQSETCSPGSAWSHPQFEK
notes: as for B2

Key:
[1] = target: T1, human LAG-3 on CHO cells stably transfected with huLAG-3 (CHO-huLAG-3) (human, UniProt P18627 23-525); assay: FACS on transfected CHO cells
T1 construct: whole, on cells; also called CHO::human LAG-3
T1 sequence (looked up): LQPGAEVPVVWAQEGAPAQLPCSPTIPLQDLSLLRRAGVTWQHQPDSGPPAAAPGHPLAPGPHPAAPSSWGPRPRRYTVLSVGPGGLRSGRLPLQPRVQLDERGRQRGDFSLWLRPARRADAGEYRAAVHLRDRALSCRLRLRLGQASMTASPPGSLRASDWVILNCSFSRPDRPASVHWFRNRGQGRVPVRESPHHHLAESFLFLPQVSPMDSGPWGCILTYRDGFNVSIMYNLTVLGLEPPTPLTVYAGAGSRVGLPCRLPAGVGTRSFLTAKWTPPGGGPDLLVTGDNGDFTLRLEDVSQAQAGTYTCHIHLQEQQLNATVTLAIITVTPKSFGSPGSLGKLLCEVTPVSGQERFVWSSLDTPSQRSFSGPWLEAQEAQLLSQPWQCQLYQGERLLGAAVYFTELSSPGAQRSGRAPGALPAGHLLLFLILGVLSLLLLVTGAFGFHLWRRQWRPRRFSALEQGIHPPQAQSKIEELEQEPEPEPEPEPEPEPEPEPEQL

[2] = target: T2, cynomolgus LAG-3 on CHO cells stably transfected with cyLAG-3 (CHO-cyLAG-3) (cynomolgus monkey); assay: FACS on transfected CHO cells
T2 construct: whole, on cells; also called CHO::cynomolgus LAG-3

[3] = target: T3, huLAG-3-Fc (human LAG-3 extracellular domain fused to human IgG1 Fc fragment, R&D systems) (human, UniProt P18627 23-450); assay: competition FACS, 3 nM huLAG-3-Fc vs MHC class II on A375 cells
T3 construct: extracellular domain; Bought from R&D Systems; also called human LAG-3-Fc fusion; not shown: human IgG1 Fc fragment
T3 sequence (looked up): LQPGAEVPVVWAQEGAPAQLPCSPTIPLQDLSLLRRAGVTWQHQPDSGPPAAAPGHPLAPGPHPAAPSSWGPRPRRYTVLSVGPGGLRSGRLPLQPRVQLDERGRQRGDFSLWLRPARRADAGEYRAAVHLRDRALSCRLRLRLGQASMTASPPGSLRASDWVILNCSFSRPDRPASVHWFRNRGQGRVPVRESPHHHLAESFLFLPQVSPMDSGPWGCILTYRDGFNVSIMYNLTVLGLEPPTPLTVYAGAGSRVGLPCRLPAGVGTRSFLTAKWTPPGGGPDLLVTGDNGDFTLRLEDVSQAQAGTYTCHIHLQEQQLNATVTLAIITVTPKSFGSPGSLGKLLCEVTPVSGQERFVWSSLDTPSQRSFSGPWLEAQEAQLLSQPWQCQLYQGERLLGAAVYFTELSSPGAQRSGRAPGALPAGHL

[4] = target: T3, huLAG-3-Fc (human LAG-3 extracellular …); assay: SPR, Fc-captured target, mutein analyte
Method: The anti-human IgG Fc antibody (GE Healthcare) was immobilized on a CM5 sensor chip using standard amine chemistry: the carboxyl groups on the chip were activated using 1-ethyl-3-(3-dimethylaminopropyl)-carbodiimide (EDC) and N-hydroxysuccinimide (NHS). […] Residual non-reacted NHS-esters were blocked by passing a solution of 1M ethanolamine across the surface. The reference channel was treated in an analogous manner.
All measurements were performed at 25° C. […] Prior to the protein measurements, three startup cycles were performed for conditioning purposes. […] Double referencing was used and the 1:1 binding model was used to fit the raw data.

Binder	EC50 [1] [nM]	EC50 [2] [nM]	IC50 [3] [nM]	Kd [4] [nM]	koff [4] [s⁻¹]	kon [4] [M⁻¹ s⁻¹]
B1	1.33	319	0.22	0.32	0.00189	5.86e+06
B2				0.026	5.81e-05	2.21e+06
B3				0.118	0.0019	1.61e+07
B4				0.0793	0.00559	7.05e+07
B5				0.235	0.00785	3.34e+07
B6				0.195	0.00501	2.58e+07
B7				0.158	0.00515	3.25e+07
B8				0.213	0.00516	2.43e+07
B9				0.11	0.00722	6.59e+07
B10	2.35	34.9	1.01	0.676	0.00014	207000
B11	2.52	31.6	0.68	0.718	0.000113	157000
B12	2.23	33.1	1.11	0.619	0.000145	234000
B13	2.23	45	0.54	1.37	0.000138	101000
B14	2.15	31.4	0.39	1.44	0.000174	121000
B15	2.55	38.9	0.3	1.29	0.000142	110000
B16	3.04	33.6	0.63	0.668	0.000105	158000
B17	1.97	29.8	1.7	0.722	0.000135	188000

Reference: patent US20190345207A1 (Pieris, published 2019)
